Assay [1] deals with Apoer2 (endogenous, mouse embryonic muscle) (mouse (endogenous in embryonic muscle)) (UniProt Q924X6). As to the kind of experiment: co-IP; E14.5 mouse hind limb muscle extract (PBS, 5 mM EDTA, 5 mM EGTA, 1% digitonin); anti-LRP4, anti-ApoER2 or anti-LRP1 overnight at 4°C, Protein A Dynabeads; immunoblot. For orientation: In western blotting, separated proteins are transferred to a membrane and probed.

Amino acid sequences for entries named in this document (tags omitted). A change or cut given only in a name is not applied to a line headed by its entry. Chains listed by the source or under a name are the forms on record and can include a tag or linker. Residues count along the entry.
UniProt Q924X6, residues 29-996: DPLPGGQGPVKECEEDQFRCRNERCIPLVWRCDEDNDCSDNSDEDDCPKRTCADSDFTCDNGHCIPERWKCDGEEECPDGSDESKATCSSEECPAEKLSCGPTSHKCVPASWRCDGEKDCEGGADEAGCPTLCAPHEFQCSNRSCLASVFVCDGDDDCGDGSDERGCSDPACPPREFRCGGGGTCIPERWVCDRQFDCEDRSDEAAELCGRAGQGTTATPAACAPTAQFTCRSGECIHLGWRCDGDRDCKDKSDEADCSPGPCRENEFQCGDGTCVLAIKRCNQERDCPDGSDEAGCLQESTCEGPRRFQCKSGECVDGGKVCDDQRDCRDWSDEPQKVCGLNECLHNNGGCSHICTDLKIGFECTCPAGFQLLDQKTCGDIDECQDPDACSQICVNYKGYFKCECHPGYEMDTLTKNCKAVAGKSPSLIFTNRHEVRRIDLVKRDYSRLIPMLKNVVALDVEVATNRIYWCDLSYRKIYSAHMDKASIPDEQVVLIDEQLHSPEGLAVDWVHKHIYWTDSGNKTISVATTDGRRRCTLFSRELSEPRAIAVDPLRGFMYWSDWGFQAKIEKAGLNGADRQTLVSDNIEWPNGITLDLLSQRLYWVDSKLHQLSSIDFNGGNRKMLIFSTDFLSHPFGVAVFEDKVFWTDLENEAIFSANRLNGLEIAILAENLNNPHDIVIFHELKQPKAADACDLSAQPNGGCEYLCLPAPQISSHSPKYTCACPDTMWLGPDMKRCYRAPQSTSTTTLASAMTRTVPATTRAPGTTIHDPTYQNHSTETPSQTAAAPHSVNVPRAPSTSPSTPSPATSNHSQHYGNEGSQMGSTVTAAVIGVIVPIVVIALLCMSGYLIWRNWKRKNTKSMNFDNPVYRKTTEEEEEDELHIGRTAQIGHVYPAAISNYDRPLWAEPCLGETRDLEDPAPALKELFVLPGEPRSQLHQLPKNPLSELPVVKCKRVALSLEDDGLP
UniProt Q8VI56: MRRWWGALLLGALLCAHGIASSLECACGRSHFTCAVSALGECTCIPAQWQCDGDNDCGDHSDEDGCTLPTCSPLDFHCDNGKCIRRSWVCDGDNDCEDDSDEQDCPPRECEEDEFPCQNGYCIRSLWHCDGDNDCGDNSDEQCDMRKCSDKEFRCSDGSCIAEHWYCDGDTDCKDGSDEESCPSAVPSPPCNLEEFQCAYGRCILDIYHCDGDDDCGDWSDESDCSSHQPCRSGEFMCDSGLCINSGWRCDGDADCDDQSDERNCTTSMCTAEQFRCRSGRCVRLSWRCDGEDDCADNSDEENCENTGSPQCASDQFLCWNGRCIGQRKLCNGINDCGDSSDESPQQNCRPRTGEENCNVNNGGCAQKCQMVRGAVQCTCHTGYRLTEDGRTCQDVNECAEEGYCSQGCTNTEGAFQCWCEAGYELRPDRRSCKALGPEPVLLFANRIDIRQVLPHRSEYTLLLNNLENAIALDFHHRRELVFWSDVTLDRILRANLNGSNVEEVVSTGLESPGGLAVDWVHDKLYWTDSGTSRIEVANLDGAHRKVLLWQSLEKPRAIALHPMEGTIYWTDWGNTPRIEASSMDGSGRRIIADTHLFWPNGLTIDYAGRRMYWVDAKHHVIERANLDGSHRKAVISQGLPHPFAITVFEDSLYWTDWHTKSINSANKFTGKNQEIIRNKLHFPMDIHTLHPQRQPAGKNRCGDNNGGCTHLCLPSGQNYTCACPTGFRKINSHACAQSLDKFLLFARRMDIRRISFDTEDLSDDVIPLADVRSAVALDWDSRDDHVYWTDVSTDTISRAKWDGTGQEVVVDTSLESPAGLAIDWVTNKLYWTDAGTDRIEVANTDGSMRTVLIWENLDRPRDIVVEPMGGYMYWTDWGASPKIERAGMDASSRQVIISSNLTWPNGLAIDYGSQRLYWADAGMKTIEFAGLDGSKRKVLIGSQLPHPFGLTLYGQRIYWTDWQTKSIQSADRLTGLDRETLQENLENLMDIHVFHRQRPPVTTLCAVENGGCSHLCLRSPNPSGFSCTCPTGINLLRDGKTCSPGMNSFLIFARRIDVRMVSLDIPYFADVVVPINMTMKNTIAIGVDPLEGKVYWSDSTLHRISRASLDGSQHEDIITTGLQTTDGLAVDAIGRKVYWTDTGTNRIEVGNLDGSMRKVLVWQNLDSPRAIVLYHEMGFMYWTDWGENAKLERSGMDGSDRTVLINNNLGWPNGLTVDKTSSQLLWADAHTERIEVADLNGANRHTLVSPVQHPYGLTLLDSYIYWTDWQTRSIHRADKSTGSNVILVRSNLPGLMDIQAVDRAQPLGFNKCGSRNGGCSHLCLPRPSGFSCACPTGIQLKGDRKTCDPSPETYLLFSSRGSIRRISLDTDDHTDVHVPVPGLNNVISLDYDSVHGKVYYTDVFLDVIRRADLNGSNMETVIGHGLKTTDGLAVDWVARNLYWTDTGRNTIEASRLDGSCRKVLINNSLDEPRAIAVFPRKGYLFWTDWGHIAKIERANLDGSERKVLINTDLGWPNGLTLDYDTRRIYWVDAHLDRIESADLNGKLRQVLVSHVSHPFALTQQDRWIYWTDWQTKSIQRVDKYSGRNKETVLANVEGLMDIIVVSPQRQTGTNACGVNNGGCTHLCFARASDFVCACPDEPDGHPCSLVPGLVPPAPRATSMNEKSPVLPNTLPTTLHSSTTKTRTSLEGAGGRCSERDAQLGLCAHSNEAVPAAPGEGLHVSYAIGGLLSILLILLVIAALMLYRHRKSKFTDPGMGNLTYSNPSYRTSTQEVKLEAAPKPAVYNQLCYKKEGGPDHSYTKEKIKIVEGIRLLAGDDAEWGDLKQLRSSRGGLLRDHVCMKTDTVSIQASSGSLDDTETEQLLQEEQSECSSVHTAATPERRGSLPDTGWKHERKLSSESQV
full length LRP4 expressed on HEK293T cells: residues 21-1905 of Q8VI56
LRP4-Fc (extracellular domain of mouse LRP4, residues 1-1650, fused to the constant region of human IgG): residues 21-1650 of Q8VI56
Recombinant rat agrin C-terminal fragment, Ala1153 Pro1959 (Pro1788-Ser1798del) (P25304, form named): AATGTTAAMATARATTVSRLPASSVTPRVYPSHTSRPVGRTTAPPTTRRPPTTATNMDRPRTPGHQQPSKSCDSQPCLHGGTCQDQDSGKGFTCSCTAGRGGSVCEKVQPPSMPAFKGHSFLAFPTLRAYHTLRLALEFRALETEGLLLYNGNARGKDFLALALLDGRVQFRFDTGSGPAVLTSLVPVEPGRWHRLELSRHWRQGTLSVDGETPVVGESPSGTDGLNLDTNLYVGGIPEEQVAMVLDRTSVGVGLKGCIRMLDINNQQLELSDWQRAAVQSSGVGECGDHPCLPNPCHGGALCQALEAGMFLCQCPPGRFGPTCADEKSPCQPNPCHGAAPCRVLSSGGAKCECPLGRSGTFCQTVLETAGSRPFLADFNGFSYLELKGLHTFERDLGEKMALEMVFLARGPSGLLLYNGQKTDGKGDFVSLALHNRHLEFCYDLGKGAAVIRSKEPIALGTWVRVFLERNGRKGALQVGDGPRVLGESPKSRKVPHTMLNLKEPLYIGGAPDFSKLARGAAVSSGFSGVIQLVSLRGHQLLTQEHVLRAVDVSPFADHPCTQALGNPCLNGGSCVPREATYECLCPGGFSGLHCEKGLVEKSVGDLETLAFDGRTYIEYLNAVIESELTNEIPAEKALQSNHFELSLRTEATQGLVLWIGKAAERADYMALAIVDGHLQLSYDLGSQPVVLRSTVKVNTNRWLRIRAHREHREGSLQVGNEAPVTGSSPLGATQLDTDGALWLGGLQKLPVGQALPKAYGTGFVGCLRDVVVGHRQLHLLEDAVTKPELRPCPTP

In assay [2] the target is LRP1 (endogenous, mouse embryonic muscle) (mouse (endogenous in embryonic muscle)) (UniProt Q91ZX7). Described as above.
Assay [3] concerns the target LRP4 (endogenous, mouse embryonic muscle) (mouse (endogenous in embryonic muscle)) (UniProt Q8VI56). Described as above.
Assay [4] has as its target APP-Fc (APP695 extracellular domain, residues 1-596, fused to the constant region of human IgG) (UniProt P12023). Briefly: pull-down; 100 ng purified APP-Fc on Protein A-agarose beads, incubated with 100 ng purified MBP-LRP4 LBD in PBS with 0.1% BSA, 4 hr, 4°C; Western blot with anti-MBP; both purified.
For assay [5] the target is unchanged. Briefly: pull-down; 100 ng purified APP-Fc on Protein A-agarose beads, incubated with 100 ng purified MBP-LRP4LBD and 0-1000 ng neuronal agrin in PBS with 0.1% BSA, 4 hr, 4°C; immunoblot with anti-MBP, anti-agrin, anti-Fc; both purified.
The target in assay [6] is LRP4-Fc (extracellular domain of mouse LRP4, residues 1-1650, fused to the constant region of human IgG) (mouse) (UniProt Q8VI56). Briefly: pull-down; Fc fusion proteins from 1.5 ml conditioned medium on Protein A-agarose beads, incubated with 1 µg neuronal agrin in DMEM with 0.1% BSA, 4 hr, 4°C; Western blot with anti-agrin; only the binder purified.
For assay [7], the target named is T1, RAP-Fc (full length RAP fused to the constant region of human IgG) (UniProt P55302).
T1 sequence: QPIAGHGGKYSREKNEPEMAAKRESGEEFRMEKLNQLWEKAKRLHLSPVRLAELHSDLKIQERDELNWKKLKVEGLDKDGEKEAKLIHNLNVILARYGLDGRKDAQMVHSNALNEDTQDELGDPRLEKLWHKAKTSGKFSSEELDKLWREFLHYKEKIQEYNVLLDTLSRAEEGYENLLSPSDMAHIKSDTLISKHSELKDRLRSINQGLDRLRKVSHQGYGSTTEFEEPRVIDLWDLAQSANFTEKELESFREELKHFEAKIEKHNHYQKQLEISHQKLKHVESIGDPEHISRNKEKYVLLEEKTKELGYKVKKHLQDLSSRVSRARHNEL
Briefly: condition: agrin 100 ng/ml; 1 µg in a final volume of 1 ml; pull-down; Fc fusion proteins from 1.5 ml conditioned medium on Protein A-agarose beads, incubated with 1 µg neuronal agrin in DMEM with 0.1% BSA, 4 hr, 4°C; Western blot with anti-agrin; only the binder purified.

Assay [8] concerns the target full length LRP4 expressed on HEK293T cells (UniProt Q8VI56). Briefly: cell aggregation assay; HEK293T cells expressing APP (green) and LRP4 (red) mixed in suspension in aggregation buffer with CaCl2, 30 min, 37°C; aggregates >3000 µm^2 scored.

These are yes or no findings as the source states them, for the method shown. For some assays here: In cells and extracts the contact can be indirect. Some binding calls cover weakened binding; strength is not graded here. For some assays here: Tags and fused reporters may be left off the sequences shown.

With “APP (endogenous, mouse embryonic muscle) (from UniProt P12023 18-770)”, the binding entry in assay [1] is “no binding”; in assay [2] it was “no binding”; in assay [3], “binds”.
For the substance “MBP-LRP4LBD (LRP4 ligand binding domain, aa 27-349, fused to maltose-binding protein) (from UniProt Q8VI56 27-349) (domain or fragment)”, the binding result in assay [4] is on record as “binds”; in assay [5], “no binding (condition: with 1000 ng/ml agrin)”.
For the substance “Recombinant rat agrin C-terminal fragment, Ala1153 Pro1959 (Pro1788-Ser1798del) (from UniProt P25304 1153-1959) (domain or fragment)”, the binding entry is given as “binds” in assay [6] and “no binding” in assay [7].
Consider “full length APP expressed on HEK293T cells (from UniProt P12023 18-770)”, for which the binding result in assay [8] is given as “binds”.

The record behind these values is publication PMC3748711.
